# The inconclusive results got no clear call from the source; some entries with a clear call stand among them for comparison. For part of these data: Potencies of inconclusive entries are doubtful fits and often do not repeat. Active and inactive are the calls of the source. Unless noted, the call rests on the fitted dose curve; in most records, active means well fitted curve in the direction sought with a large enough effect; inconclusive means small, poorly fitted or top-dose-only effect, or another doubt; inactive means no such curve, though single readings can be large; an effect the other way counts as inactive or inconclusive.
# Assays:
# JEG-3 = assay: Primary qHTS to identify gynecologic anti-cancer compounds using libraries of approved drugs and bioactive compounds (AID 1345084); settings: Gynecologic cancer cell panel viability, ATPlite luminescence, 48 h; series mostly up to 57.5 µM; further: nearly all actives have a fitted effect of over 55% in size; further: potency means the concentration at half of the fitted maximal effect
# Outline: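 Five-concentration response, 48 h; readout is ATP-driven luciferase luminescence.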
# [1] = tested on: Zika virus NS2B-NS3 protease (linked construct); assay: Primary screen NINDS Rhodamine qHTS for Zika virus inhibitors (AID 1347160); settings: purified NS2B-NS3 protease, Rhodamine110 substrate fluorescence; activity change, negative = inhibition: at 57.1 µM (top of the series) unless noted; series mostly up to 57.1 µM; further: nearly all actives have a fitted effect of over 55% in size; further: potency means the concentration at half of the fitted maximal effect; on activity change, negative = inhibition: on the % scale 0 is the no-effect control and ±100 the full control effect
# Outline: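 Single-chain NS2B-NS3 protease, 25 nM, pH 8.0; compounds preincubated 15 min. Activity: Rhodamine110 release from 1.5 microM substrate over 15 min, room temperature, data fitted to 4-parameter Hill.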
# [2] = qHTS of pediatric cancer cell lines to identify multiple opportunities for drug repurposing: Primary screen for A673 cells (AID 1347092); settings: A673 Ewing sarcoma viability, CellTiter-Glo ATP luminescence, 48 h; activity change, negative = cytotoxic: at 46 µM (top of the series); further: on the % scale 0 is the no-effect control and ±100 the full control effect; nearly all actives have a fitted effect of over 45% in size
# Outline: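 48 h compound exposure, A673, 500-1,000 cells/well, 37 degrees C/5% CO2. MIPE: 11-point, 0.78 nM-46 µM; NPC: 8-point, 0.59 nM-46 µM (final). Readout CellTiter-Glo luminescence after 15 min RT.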
# [3] = qHTS of pediatric cancer cell lines to identify multiple opportunities for drug repurposing: Primary screen for SK-N-MC cells (AID 1347093); settings: SK-N-MC viability, CellTiter-Glo luminescence, 48 h; activity change, negative = cytotoxic: at 46 µM (top of the series);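 further: plate controls were DMSO neutral control for no effect and bortezomib for full effect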
# Outline: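 Metabolically active cells were quantified by ATP-dependent luminescence (CellTiter-Glo, 15 min at room temperature) following 48 h treatment. Cells had been plated at 500-1,000 per well and settled for 5 h beforehand.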
# [4] = qHTS of pediatric cancer cell lines to identify multiple opportunities for drug repurposing: Primary screen for BT-37 cells (AID 1347094); settings: BT-37 viability, CellTiter-Glo luminescence, 48 h; series mostly up to 57.3 µM; further: potency means the concentration at half of the fitted maximal effect;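 on activity change, negative = cytotoxic: plate controls were DMSO for no effect and bortezomib for full effect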
# Outline: (§1)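 Readout: CellTiter-Glo luminescence, 48 h treatment. Controls DMSO (neutral) and bortezomib 2.3 µM final (positive). Potency and efficacy taken from primary-screen concentration-response curves.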
# [5] = qHTS of pediatric cancer cell lines to identify multiple opportunities for drug repurposing: Primary screen for Saos-2 cells (AID 1347097); settings: Saos-2 viability, CellTiter-Glo ATP luminescence, 48 h; series mostly up to 46 µM; further: potency means the concentration at half of the fitted maximal effect; nearly all actives have a fitted effect of over 40% in size
# Outline: as §1
# [6] = qHTS of pediatric cancer cell lines to identify multiple opportunities for drug repurposing: Primary screen for RD cells (AID 1347104); settings: RD rhabdomyosarcoma viability, CellTiter-Glo luminescence, 48 h; activity change, negative = cytotoxic: at 46 µM (top of the series);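 further: plate controls were DMSO for no effect and bortezomib for full effect; nearly all actives have a fitted effect of over 55% in size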
# Outline: as §1
# [7] = biological target: Phospholipid hydroperoxide glutathione peroxidase GPX4 (Homo sapiens) (UniProt P36969); assay: Primary qHTS Assay for Inhibitors of Recombinant Selenoprotein Glutathione Peroxidase 4 (GPX4) (AID 1845192); settings: recombinant GPX4, GR-coupled NADPH fluorescence, 15 min; series mostly up to 50 µM; further: nearly all actives have a fitted effect of over 65% in size; further: potency means the concentration at half of the fitted maximal effect; on activity change, negative = inhibition: on the % scale 0 is the no-effect control and ±100 the full control effect
# Chain of UniProt P36969 (P36969 whole entry, looked up): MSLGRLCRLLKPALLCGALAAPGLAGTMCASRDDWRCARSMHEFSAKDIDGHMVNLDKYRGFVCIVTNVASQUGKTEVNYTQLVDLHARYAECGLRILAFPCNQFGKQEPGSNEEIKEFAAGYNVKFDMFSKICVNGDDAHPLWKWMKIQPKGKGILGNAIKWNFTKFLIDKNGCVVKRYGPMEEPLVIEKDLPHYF
# Outline: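 Steps: GPX4 plus compound, 30 min RT; add GR/GSH/NADPH master mix; start with cumene hydroperoxide; read 340/450 nm fluorescence at 0 and 15 min. Finals were 200 nM GPX4, 1 mM GSH, 0.5 mM CHP, 0.5 mM NADPH, 100 nM GR.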
# [8] = Drug repurposing screens with cells derived from glioblastoma tumor samples (AID 1345199); settings: GBM patient neurospheres viability, ATP luminescence, 48 h; Potency: tumour line A unless noted; activity, negative = cell killing: at 46 µM (top of the series), tumour line A unless noted; further: nearly all actives have a fitted effect of over 40% in size; further: potency means the concentration at half of the fitted maximal effect; on activity, negative = cell killing: on the % scale 0 is the no-effect control and ±100 the full control effect
# Outline: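 Primary testing used CD133+ neurospheres from four GBM patients, seven concentrations, 48 h exposure and ATP-based viability; confirmation added three slower-growing patient lines.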
# [9] = biological target: Cytochrome P450 2C9 (Homo sapiens) (UniProt P11712); assay: Cytochrome P450 family 2 subfamily C member 9 (CYP2C9) small molecule antagonists: luciferase biochemical (cell-free) qHTS assay (AID 1645842; active means well fitted curve in the direction sought with a large enough effect in the repeat runs; inconclusive means weak or mixed curves; inactive means no such curve, though single readings can be large; an effect the other way counts as inactive or inconclusive; further: nearly all actives have a fitted effect of over 55% in size; further: potency means the concentration at half of the fitted maximal effect; on activity change, negative = inhibition: on the % scale 0 is the no-effect control and ±100 the full control effect); settings: P450-Glo CYP2C9 enzyme assay, luciferin luminescence; series mostly up to 57.4 µM
# Chain of UniProt P11712 (P11712 whole entry, looked up): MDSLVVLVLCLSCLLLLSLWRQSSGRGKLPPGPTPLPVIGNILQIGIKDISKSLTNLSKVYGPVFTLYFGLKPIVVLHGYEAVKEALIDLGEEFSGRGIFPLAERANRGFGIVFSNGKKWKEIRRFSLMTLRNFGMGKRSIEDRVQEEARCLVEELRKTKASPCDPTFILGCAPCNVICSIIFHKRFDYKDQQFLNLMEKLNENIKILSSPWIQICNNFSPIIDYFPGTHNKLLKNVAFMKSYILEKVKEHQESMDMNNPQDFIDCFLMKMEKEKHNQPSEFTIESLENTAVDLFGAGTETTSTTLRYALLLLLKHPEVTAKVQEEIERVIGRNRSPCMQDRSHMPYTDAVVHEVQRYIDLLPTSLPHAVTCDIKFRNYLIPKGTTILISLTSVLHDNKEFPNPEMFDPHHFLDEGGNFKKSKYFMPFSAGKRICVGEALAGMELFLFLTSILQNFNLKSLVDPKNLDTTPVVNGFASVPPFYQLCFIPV
# Outline: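 P450-Glo CYP2C9 system: proluciferin substrate with enzyme in mix containing 0.4% BSA, 10 min at room temperature, then NADPH regeneration solution added and incubated 1 h at 37C. Detection reagent stopped reaction; luminescence read after 20 min as RLU.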
# [10] = A High-Content qHTS Against Drug Library for the Identification of Small Molecules that Inhibit DYT1 Early Onset Primary Dystonia-Associated Cell Pathology (AID 1645839; calls by dose curve; further: potency means the concentration at half of the fitted maximal effect); settings: HEK293 Flp-In EGFP-delE TorsinA, punctate imaging, 48 h; series mostly up to 46.1 µM
# Outline: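 Cells were seeded and left for 24 h, then dosed with compound alongside tetracycline induction of mutant EGFP-TorsinA. They were incubated for 48 h, fixed in 4% paraformaldehyde, permeabilized and imaged for mislocalization (%pathology) and cell count.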
# [11] = qHTS of pediatric cancer cell lines to identify multiple opportunities for drug repurposing: Primary screen for BT-12 cells (AID 1347101); settings: BT-12 viability, CellTiter-Glo luminescence, 48 h; series mostly up to 57.3 µM; further: potency means the concentration at half of the fitted maximal effect; nearly all actives have a fitted effect of over 25% in size
# Outline: (§2)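 Cells (500-1,000/well) rested 5 h, then received compounds for 48 h; metabolically active cells were measured by CellTiter-Glo luminescence. Final concentrations spanned up to 46 µM (MIPE, 11-point) or 0.59 nM-46 µM (NPC, 8-point) in primary screens, 11-point in follow-ups.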
# [12] = qHTS of pediatric cancer cell lines to identify multiple opportunities for drug repurposing: Primary screen for OHS-50 cells (AID 1347103); settings: OHS-50 osteosarcoma viability, CellTiter-Glo luminescence, 48 h; series mostly up to 57.3 µM; further: potency means the concentration at half of the fitted maximal effect; nearly all actives have a fitted effect of over 40% in size
# Outline: as §2
# Tags describe the fitted curve by direction and shape.
smiles,measurement,setting,value
Cc1cc2c(F)c(Oc3ncnn4cc(OCC(C)O)c(C)c34)ccc2[nH]1 (stereo unspecified),Potency,JEG-3,"inconclusive: 22.4 µM [cytotoxic, single point]"
C=C1/C(=C/C=C2\CCC[C@]3(C)[C@@H]([C@H](C)/C=C/[C@H](O)C4CC4)CC[C@@H]23)C[C@@H](O)C[C@@H]1O,Potency,[1],"inconclusive: 22.4 µM [inhibitor, partial curve]"
C/C=C/C=C/C=C/C(=O)O[C@@H]1C=C(CO)[C@](O)(CO)[C@@]2(C)CCCC(C)(C)[C@H]12,Potency,JEG-3,inactive
CCOc1ccc(-c2ccc(Cn3c(CC(C)(C)C(=O)O)c(SC(C)(C)C)c4cc(OCc5ccc(C)cn5)ccc43)cc2)cn1,Potency,[1],"inconclusive: 2 µM [inhibitor, full curve]"
O=C(O)CN1C(=O)c2cccc3cccc(c23)C1=O,"activity change, negative = cytotoxic",[2],inconclusive: -75.6%
same,Potency,[3],inactive
same,Potency,[4],"inconclusive: 0.001 µM [cytotoxic, full curve, poor fit]"
same,Potency,[5],"inconclusive: 0.001 µM [cytotoxic, full curve, poor fit]"
same,Potency,[6],inactive
CC1(C)CC2=C3C=CC4C5(C)CCC(O)C(C)(C)C5CCC4(C)C3(C)CCC2(C)C(O)C1 (stereo unspecified),Potency,[1],active: 8.91 µM
COC(=O)Cc1cc2c(c([N+](=O)[O-])c1)N(C(=O)CC[C@H](N)C(=O)O)CC2,Potency,[7],inactive
COc1ccc2cc1Oc1cc3c(cc1OC)CC[N+](C)(C)[C@H]3Cc1ccc(cc1)Oc1c(OC)c(OC)cc3c1[C@@H](C2)[N+](C)(C)CC3,Potency,[2],inactive
same,Potency,[4],inactive
same,Potency,[8],"inconclusive: 35.5 µM [inhibitor, partial curve, poor fit]"
CC1CC2OCC3(O)CCC(O)C(C14CC(c1ccoc1)OC4=O)C23CO (stereo unspecified),Potency,[1],"inconclusive: 22.4 µM [inhibitor, single point]"
CCOC(=O)c1sc(NC(=O)[C@H](C(C)C)n2c(=O)[nH]c3ccccc3c2=O)nc1C,Potency,[9],active: 4.77 µM
N#Cc1ccc(C2CCCc3cncn32)cc1 (stereo unspecified),Potency,[9],"inconclusive: 15.6 µM [inhibitor, single point]"
same,Potency,JEG-3,inactive
FC(F)(F)c1cc(-c2ncn(/C=C\c3nnco3)n2)cc(C(F)(F)F)c1,Potency,JEG-3,"inconclusive: 8.91 µM [cytotoxic, partial curve]"
COc1cn(-c2ccc(-n3cccn3)cc2F)nc(-c2ccnn2-c2ccccc2)c1=O,Potency,[9],active: 15.1 µM
CN(CC1(C)CCCO1)S(=O)(=O)c1ccc(Cl)c(S(N)(=O)=O)c1 (stereo unspecified),Potency,[8],"inconclusive: 3.55 µM [inhibitor, partial curve]"
O=C(O)CCCC[C@@H]1SC[C@@H]2NC(=O)N[C@@H]21,Potency,[10],inactive
same,Potency,[8],active: 17.8 µM
CCOc1ccc(C(=O)OCCN(CC)CC)cc1,Potency,[6],inactive
same,Potency,[9],inactive
same,Potency,[8],inactive
c1ccc(Nc2nc3c(s2)CCCc2[nH]ncc2-3)nc1,Potency,[1],inactive
same,Potency,[9],"inconclusive: 23.9 µM [inhibitor, single point]"
CCCCCOc1ccc(C2SC(=O)NC2=O)cc1OCC (stereo unspecified),Potency,[3],inactive
same,Potency,[11],"inconclusive: 3.47 µM [cytotoxic, partial curve, poor fit]"
same,Potency,[12],"inconclusive: 3.09 µM [cytotoxic, partial curve, poor fit]"
same,Potency,[1],"inconclusive: 25.1 µM [inhibitor, single point]"
same,Potency,[10],"inconclusive: 17.8 µM [inhibitor, partial curve, poor fit]"
same,Potency,[7],active: 22.4 µM
same,Potency,JEG-3,inactive
same,Potency,[8],"inconclusive: 28.2 µM [inhibitor, partial curve]"
